Structures are written as SMILES. Among all 310,000 compounds or so, about 14,000 (4.5%) showed an effect of 50% or more. Effects have a minus sign here. The list shows a part of the results.

Here are results for 25 compounds from paper PMC4336329 (PLoS ONE, 2015).
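Further: peak tail current of the secondary pulse compared with the same well before compound.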

Sequence of human ether-à-go-go-related gene (hERG) potassium channel (Q12809 whole entry, looked up): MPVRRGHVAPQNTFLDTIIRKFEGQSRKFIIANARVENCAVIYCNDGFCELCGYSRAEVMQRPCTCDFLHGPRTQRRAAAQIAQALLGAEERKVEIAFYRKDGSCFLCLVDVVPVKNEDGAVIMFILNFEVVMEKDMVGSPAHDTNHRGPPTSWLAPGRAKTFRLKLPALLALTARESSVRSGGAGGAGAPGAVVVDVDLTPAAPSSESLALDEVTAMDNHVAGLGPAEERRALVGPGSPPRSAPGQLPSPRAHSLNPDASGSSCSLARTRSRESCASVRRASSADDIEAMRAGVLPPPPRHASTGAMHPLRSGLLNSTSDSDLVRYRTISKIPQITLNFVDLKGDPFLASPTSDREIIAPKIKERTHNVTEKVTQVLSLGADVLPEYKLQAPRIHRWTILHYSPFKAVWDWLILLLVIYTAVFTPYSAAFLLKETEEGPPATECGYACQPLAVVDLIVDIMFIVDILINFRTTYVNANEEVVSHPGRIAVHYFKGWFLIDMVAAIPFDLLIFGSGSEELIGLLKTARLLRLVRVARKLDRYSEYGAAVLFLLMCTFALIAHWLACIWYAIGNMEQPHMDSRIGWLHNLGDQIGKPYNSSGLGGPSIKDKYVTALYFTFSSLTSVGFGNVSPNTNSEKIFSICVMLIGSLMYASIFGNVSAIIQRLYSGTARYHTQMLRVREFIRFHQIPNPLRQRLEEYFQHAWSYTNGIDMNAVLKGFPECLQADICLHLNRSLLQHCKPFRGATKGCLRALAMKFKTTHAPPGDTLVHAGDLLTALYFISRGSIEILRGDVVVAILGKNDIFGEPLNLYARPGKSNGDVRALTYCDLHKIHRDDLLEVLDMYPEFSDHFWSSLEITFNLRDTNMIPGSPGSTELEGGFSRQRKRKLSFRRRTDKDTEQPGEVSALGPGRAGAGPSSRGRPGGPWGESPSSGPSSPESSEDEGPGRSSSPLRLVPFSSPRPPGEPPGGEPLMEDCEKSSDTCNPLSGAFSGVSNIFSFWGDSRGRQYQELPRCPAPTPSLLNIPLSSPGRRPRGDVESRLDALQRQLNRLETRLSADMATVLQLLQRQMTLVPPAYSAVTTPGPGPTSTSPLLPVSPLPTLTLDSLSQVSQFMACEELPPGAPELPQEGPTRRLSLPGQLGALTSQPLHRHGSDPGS

The assay concerns the target human ether-à-go-go-related gene (hERG) potassium channel (human, UniProt Q12809). Description: primary screen, population patch clamp on CHO cells stably expressing hERG.
In the case of `O=[N+]([O-])c1cccc(S(=O)(=O)NCc2ccccn2)c1`, the “hERG current change (%, negative = inhibition) at 10uM” value was determined as 15.6%.
The value for `COc1cccc(NC(=O)COc2ccc(N3CC(C(=O)NCC(C)C)CC3=O)cc2)c1` (stereo not shown) was 16.9%; that for `Cc1cc(C)n(-c2nc3sc4c(c3c(=O)[nH]2)CCCC4)n1` was 0.511%.
With `CC(C)OC(=O)c1c(NC(=O)C2CC=CCC2C(=O)O)sc2c1CCCCC2` (stereo not shown), the “hERG current change (%, negative = inhibition) at 10uM” value is -21.7%.
The value for `O=C(COc1ccc2c(c1)C(=O)CC1(CCCCC1)O2)NCc1ccccn1` was -33.9%; that for `Cc1c(S(=O)(=O)Nc2ccc3c(c2)OCCO3)cnn1C` was 8.21%.
The value for `CCCCc1nc2cc(C(=O)N3CCC[C@H]3CO)ccc2o1` was 15.4%.
On to `O=C(CSc1ccc2ccccc2n1)Nc1ccc(N2CCOCC2)cc1`, for which the “hERG current change (%, negative = inhibition) at 10uM” value is on record as 4.27%.
For `O=C1NC(=S)NC(=O)C1=Cc1ccc2c(c1)CCN2CCCCl`, the “hERG current change (%, negative = inhibition) at 10uM” value is 10.1%.
Then `O=S(=O)(c1cccc2nsnc12)N1CCN(c2ccc(F)cc2)CC1`, with -31.3%; and `CCCC(=O)NC(=S)NNC(=O)c1ccc([N+](=O)[O-])cc1`, with 8.59%.
With `O=C(CN1CCS(=O)(=O)CC1)NNC(=O)C1CCCCC1`, the “hERG current change (%, negative = inhibition) at 10uM” value was -4.44%.
`COc1cccc(-c2ncc3ccccc3c2COC(=O)c2cccs2)c1`: the “hERG current change (%, negative = inhibition) at 10uM” value is listed as -3.16%.
With `CCN1C[C@]2(C)CC[C@H](OC)[C@]34C2[C@H](OC(C)=O)[C@@]2(OCO[C@@]25C[C@H](OC)[C@H]2C[C@]3(O)C5[C@H]2OC)[C@@H]14`, the “hERG current change (%, negative = inhibition) at 10uM” value is given as 39.8%.
The value for `Cc1ccccc1C(=O)NNc1ncnc2c1cnn2C` was 9.81%; that for `COc1ccc(/C=N/Nc2nonc2N)c(OC)c1` was 9.92%.
Turning to `C[N+](C)(C)CC#CCOC(=O)Nc1cccc(Cl)c1.[Cl-]`, the “hERG current change (%, negative = inhibition) at 10uM” value is on record as -0.897%.
Then `CSc1nnc(Cc2ccc3c(c2)OCO3)o1`, with 1.83%.
Then `N#CC1=C(SCc2ccccc2)NC(=O)CC1c1cccc(O)c1` (stereo not shown), with -17.5%.
On to `CCCn1c(=O)c2ccccc2n2c(SCC(=O)/C(C#N)=C(\C)N)nnc12`, for which the “hERG current change (%, negative = inhibition) at 10uM” value was determined as 2.18%.
As for `NC1=NC(=O)/C(=C/c2cccc(F)c2)S1`, the “hERG current change (%, negative = inhibition) at 10uM” value is on record as 25.2%.
Then `Fc1ccccc1N1CCN(CCCNc2ccc3nncn3n2)CC1`, with -10.4%; and `COc1ccc(CNC(=O)C2CCCN2CCc2ccccc2)cc1OC` (stereo not shown), with -46.9%; and `CC(C)(C)c1ccccc1NC(=O)c1ccc2c(c1)SC1=NS(=O)(=O)CCN12`, with 6.51%.
For `COc1ccc(Cl)cc1NC(=O)NCC1CCN(Cc2ccccc2F)CC1`, the “hERG current change (%, negative = inhibition) at 10uM” value was -37.7%.
